Laboratory results reported in PubChem BioAssay AID894 (National Center for Advancing Translational Sciences (NCATS), 2007).
“And” between values parts separate entries of the source, which are not always exact repeats. Identical values can stand only once. Hit rate of the full screen: of about 150,000 compounds, about 6,500 (4.3%) were called active. This list was built around the results that the source calls inconclusive (neither active nor inactive); the mix of calls is not that of the screen. Calls follow the shape of the dose curve; as a rule, active = well fitted inhibition curve with a large enough effect (not every such curve was filed as active); inconclusive = small, poorly fitted or top-dose-only effect, or another doubt; inactive = no such curve, though single readings can be large or run the other way. Potencies of inconclusive entries are left out as doubtful fits.

What follows are molecules tested against 15-hydroxyprostaglandin dehydrogenase [NAD(+)] (Homo sapiens) (UniProt P15428) (assay: qHTS Assay for Inhibitors of HPGD (15-Hydroxyprostaglandin Dehydrogenase)). Settings: purified HPGD, NADH fluorescence kinetic, PGE2 substrate; activity change, negative = inhibition: active compounds read low.
UniProt P15428, sequence (P15428 whole entry, looked up): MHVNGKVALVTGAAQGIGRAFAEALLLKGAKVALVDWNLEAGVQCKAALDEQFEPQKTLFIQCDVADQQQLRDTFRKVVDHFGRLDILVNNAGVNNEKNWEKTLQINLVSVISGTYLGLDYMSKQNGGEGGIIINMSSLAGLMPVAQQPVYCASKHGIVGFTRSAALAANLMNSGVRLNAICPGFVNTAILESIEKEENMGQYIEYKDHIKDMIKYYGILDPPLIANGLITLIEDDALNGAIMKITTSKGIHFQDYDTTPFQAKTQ
Outline: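 NADH formation kinetics: reaction with 30 uM PGE2 and 1 mM NAD+ (final), 20 nM enzyme, Tris-HCl pH 8 with Tween 20, after 15 min compound preincubation at room temperature. Fluorescence change, last versus first of five reads.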
% is scaled to controls: 0 for no effect and ±100 for the full control effect; potency is read from the fitted curve at half-maximal effect; tags tell the direction and shape of the fitted curve.

Row | Structure (SMILES) | Potency | activity change, negative = inhibition
1 | Cc1nc(N)sc1C(=O)N/N=C/c1c[nH]c2ccccc12 | inconclusive [inhibitor, partial curve] | 
2 | Nc1ccc(C23CC4CC(CC(CO)(C4)C2)C3)cc1 |  | inactive: -8.58%
3 | CCNC(=S)N/N=C/c1ccc(-c2ccccc2)o1 | inconclusive [inhibitor, partial curve] | 
4 | NC(=O)c1sc2nccc(Nc3ccccc3)c2c1N | inconclusive [inhibitor, partial curve] | 
5 | COc1ccc(C(=O)COC(=O)CNC(=O)C2CCCCC2)c(OC)c1 | active: 25.1 µM | 
6 | CCN(CC)C(=O)CSc1nnc(-c2ccc(S(=O)(=O)N3CCCC3)cc2)o1 | inconclusive [inhibitor, single point] | 
7 | CCCCNC(=O)CCSc1ccc(C)cc1 | inconclusive [inhibitor, single point] | 
8 | S=c1[nH]nc(COc2ccc3c(c2)OCO3)n1-c1ccccc1 | active: 25.1 µM | 
9 | Cc1nnc(-c2cnn(-c3ccccc3)c2N)n1Cc1cccc(C(F)(F)F)c1 | active: 12.6 µM | 
10 | CCOc1cc(C2NN=C(c3ccccc3)S2)ccc1OCc1ccccc1Cl (stereo not given) | inconclusive [inhibitor, partial curve] | 
11 | COc1ccc2[nH]c(=O)c(CN(CCN(C)C)C(=O)NCc3ccccc3)cc2c1 | inconclusive [inhibitor, single point] | 
12 | CCOC(=O)N1CCC(c2cc(=O)n3[nH]c(C)c(-c4ccc(F)cc4)c3n2)CC1 | inconclusive [inhibitor, single point] | 
13 | COc1ccc(/C(O)=C/Sc2nnc(Cc3ccccc3)o2)cc1 | inconclusive [inhibitor, partial curve, poor fit] | 
14 | CCc1nnc(NS(=O)(=O)c2ccc(N=Cc3c(C)[nH]n(-c4ccc(C)c(C)c4)c3=O)cc2)s1 | active: 15.8 µM | 
15 | CN1CCN(c2ncc3nc(CCc4ccccc4)c(=O)n(Cc4cccs4)c3n2)CC1 | inconclusive [inhibitor, single point] | 
16 | O=C(NCC1CCCO1)c1ccc2c(=O)n(Cc3ccco3)c(SCC(=O)N3CCCC3)nc2c1 (stereo not given) | inconclusive [inhibitor, partial curve] | 
17 | COC(=O)c1sc2nc(SCc3cccc(Cl)c3)n(N)c(=O)c2c1C | inconclusive [inhibitor, partial curve] | 
18 | Cc1ccc(NC(=O)C(C)Sc2nnc(-c3cccnc3)n2-c2ccccc2)cc1 (stereo not given) | active: 14.1 µM | 
19 | CC(=O)c1ccc(-n2c(-c3cc(-c4ccco4)[nH]n3)n[nH]c2=S)cc1 | active: 5.62 µM | 
20 | CC1(C)Cc2nc3sc4c(=O)n(CC(=O)NCc5ccccc5)cnc4c3cc2CO1 | inconclusive [inhibitor, single point] | 
21 | O=C1c2ccccc2C(Nc2ccccc2)N1c1ccc(Cl)cn1 (stereo not given) |  | inactive: -19.4%
22 | CN(C)CCCN1C(=O)C(=O)/C(=C(/O)c2ccncc2)C1c1cccnc1 (stereo not given) |  | inactive: -12.2%
23 | O=C(COc1ccc2ccccc2c1)N1CCCC1 | inconclusive [inhibitor, single point] | 

Row | Structure (SMILES) | Potency | activity change, negative = inhibition
24 | Cc1cc(N)n2ncc(-c3ccccc3)c2n1 | inconclusive [inhibitor, partial curve, poor fit] | 
25 | CCN1C(=O)N[C@@H](c2ccc(Br)cc2)C(C(C)=O)=C1C |  | inactive: -7.42%
26 | CNc1ccc(Br)cc(C(=O)/C=C/c2cccc(OC)c2OC)c1=O | active: 14.1 µM | 
27 | CCN(CC)c1ccc(/C=N/NC(=S)NCc2ccco2)cc1 | inconclusive [inhibitor, partial curve] | 
28 | O=c1ccc2cc3c([nH]c4ccc(Br)cc43)oc-2c1O | active: 15.8 µM | 
29 | Fc1ccc(-c2ccnc3nc(-n4cccc4)nn23)cc1 | inconclusive [inhibitor, partial curve] | 
30 | Cc1ccc2c(Cl)c(C(=O)NCC3CCCO3)sc2c1 (stereo not given) | active: 14.1 µM | 
31 | COc1cc(C2C(C#N)=C(N)Oc3c2ccc2ccccc32)ccc1OCC(=O)Nc1cccc(C)c1 (stereo not given) | inconclusive [inhibitor, partial curve] | 
32 | CCCCNC(=S)Nc1cc([N+](=O)[O-])ccc1C | active: 14.1 µM | 
33 | Cc1cc(C)n2cc(COc3ccccc3)nc2n1 | inconclusive [inhibitor, partial curve] | 
34 | COc1ccc(NC(=O)N2CCC3(CC2)CCN(C(=O)c2csnn2)CC3)cc1 |  | inactive: -0.0524%
35 | COc1ccccc1CNC(=O)c1c(N)n(CCCN2CCOCC2)c2nc3ccccc3nc12 | inconclusive [inhibitor, partial curve] | 
36 | N#CC1=C(S)N(c2ccc(F)cc2)C(c2cccs2)NC1=O (stereo not given) |  | inactive: -6.33%
37 | C[C@](N)(Cc1ccc(O)cc1)C(=O)O |  | inactive: -7.17% and inactive: -5.42%
38 | COc1ccc2c(c1)O[C@@H](c1cccc(C(F)(F)F)c1)[C@H](OC(=O)NCCc1ccc(OC)c(OC)c1)C2=O |  | inactive: -12.8% and inactive: -10.8%
39 | COc1cc2c(cc1OC)[C@@H]1CC(=O)[C@@H](CC(C)C)CN1CC2 | inconclusive [inhibitor, partial curve] | 
40 | Cc1c(O)c(=O)c2ccccc2n1C | inconclusive [inhibitor, partial curve] | 
41 | COc1ccc(Oc2ccc(N/C=C3/CCCC3=O)cc2)cc1 |  | inactive: -18.1%
42 | COc1ccc(-c2nc3c(n2O)CCCC3=O)cc1OC | inconclusive [inhibitor, partial curve] | 
43 | CCOc1ccc2nc(SCc3cccc(C)c3)nc(C)c2c1 | inconclusive [inhibitor, full curve] | 
44 | O=C(NCc1ccco1)c1cnn2c(C(F)(F)F)cc(-c3cccs3)nc12 | inconclusive [inhibitor, partial curve] | 
45 | Cc1ccn2cc(CCNC(=O)CC(C)(C)C)nc2c1 | inconclusive [inhibitor, partial curve] | 
